Laboratory results taken from paper PMC12820563.
Some of the results follow. The list includes weakly bound sequences.

Target: T1, MBP-FoxP3dN (UniProt Q99JB6)
T1 sequence: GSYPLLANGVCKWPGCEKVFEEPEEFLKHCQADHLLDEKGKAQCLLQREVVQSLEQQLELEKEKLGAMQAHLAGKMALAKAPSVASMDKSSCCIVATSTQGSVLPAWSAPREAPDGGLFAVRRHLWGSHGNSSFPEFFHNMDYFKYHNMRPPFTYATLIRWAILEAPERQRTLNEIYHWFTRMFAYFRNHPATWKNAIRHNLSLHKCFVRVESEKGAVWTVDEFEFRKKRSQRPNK
Assay: PD-seq (MBP pull-down with sequencing)
Settings: 20 mM Tris-HCl pH 7.5, 100 mM NaCl, 1.5 mM MgCl2, 0.4 uM protein, 0.1 uM dsDNA library, 30 min, room temperature, amylose pull-down; high values mean tight binding; double strand, one strand shown

| Sequence | binding signal (RPM ratio (pull-down/input)) |
| --- | --- |
| GATGATTGTTCTCCCAGCTGATGAATTGGCACGCTCGAGTAAACAAATTTTCCTAATCTTTCTGTTCAAGCGCCATCTAC | 0.437 |
| GATGATTGTTCTCCCAGCTGATGAATTAGATGGATCGAGTAAACAAATTTTCCTAATCTTTCTGTTCAAGCGCCATCTAC | 0.36 |
| GATGATTGTTCTCCCAGCTGATGAATTTGGTTGTTCGAGTAAACAAATTTTCCTAATCTTTCTGTTCAAGCGCCATCTAC | 5.35 |
| GATGATTGTTCTCCCAGCTGATGAATTAACCTCCTCGAGTAAACAAATTTTCCTAATCTTTCTGTTCAAGCGCCATCTAC | 0.273 |
| GATGATTGTTCTCCCAGCTGATGAATTGGGCGCTTCGAGTAAACAAATTTTCCTAATCTTTCTGTTCAAGCGCCATCTAC | 0.733 |
| GATGATTGTTCTCCCAGCTGATGAATTCGGACAATCGAGTAAACAAATTTTCCTAATCTTTCTGTTCAAGCGCCATCTAC | 0.32 |
| GATGATTGTTCTCCCAGCTGATGAATTTGCCGGATCGAGTAAACAAATTTTCCTAATCTTTCTGTTCAAGCGCCATCTAC | 0.286 |
| GATGATTGTTCTCCCAGCTGATGAATTTATTTTTTCGAGTAAACAAATTTTCCTAATCTTTCTGTTCAAGCGCCATCTAC | 4.63 |
| GATGATTGTTCTCCCAGCTGATGAATTGGTAACCTCGAGTAAACAAATTTTCCTAATCTTTCTGTTCAAGCGCCATCTAC | 0.474 |
| GATGATTGTTCTCCCAGCTGATGAATTCAGTCAATCGAGTAAACAAATTTTCCTAATCTTTCTGTTCAAGCGCCATCTAC | 0.356 |
| GATGATTGTTCTCCCAGCTGATGAATTTGGCCGATCGAGTAAACAAATTTTCCTAATCTTTCTGTTCAAGCGCCATCTAC | 0.473 |
| GATGATTGTTCTCCCAGCTGATGAATTCGGAGTATCGAGTAAACAAATTTTCCTAATCTTTCTGTTCAAGCGCCATCTAC | 0.535 |
| GATGATTGTTCTCCCAGCTGATGAATTCCGCAATTCGAGTAAACAAATTTTCCTAATCTTTCTGTTCAAGCGCCATCTAC | 4.91 |
| GATGATTGTTCTCCCAGCTGATGAATTGTGATGGTCGAGTAAACAAATTTTCCTAATCTTTCTGTTCAAGCGCCATCTAC | 1.72 |
| GATGATTGTTCTCCCAGCTGATGAATTACTGGATTCGAGTAAACAAATTTTCCTAATCTTTCTGTTCAAGCGCCATCTAC | 0.293 |
| GATGATTGTTCTCCCAGCTGATGAATTTTTTGACTCGAGTAAACAAATTTTCCTAATCTTTCTGTTCAAGCGCCATCTAC | 0.273 |

| Sequence | binding signal (RPM ratio (pull-down/input)) |
| --- | --- |
| GATGATTGTTCTCCCAGCTGATGAATTGGAGTTTTCGAGTAAACAAATTTTCCTAATCTTTCTGTTCAAGCGCCATCTAC | 0.641 |
| GATGATTGTTCTCCCAGCTGATGAATTGGCCCACTCGAGTAAACAAATTTTCCTAATCTTTCTGTTCAAGCGCCATCTAC | 0.349 |
| GATGATTGTTCTCCCAGCTGATGAATTTCTTGCATCGAGTAAACAAATTTTCCTAATCTTTCTGTTCAAGCGCCATCTAC | 1 |
| GATGATTGTTCTCCCAGCTGATGAATTGACTTGGTCGAGTAAACAAATTTTCCTAATCTTTCTGTTCAAGCGCCATCTAC | 0.402 |
| GATGATTGTTCTCCCAGCTGATGAATTGAAAATTTCGAGTAAACAAATTTTCCTAATCTTTCTGTTCAAGCGCCATCTAC | 0.227 |
| GATGATTGTTCTCCCAGCTGATGAATTCTGGTAGTCGAGTAAACAAATTTTCCTAATCTTTCTGTTCAAGCGCCATCTAC | 0.541 |
| GATGATTGTTCTCCCAGCTGATGAATTTAGCTTTTCGAGTAAACAAATTTTCCTAATCTTTCTGTTCAAGCGCCATCTAC | 3.14 |
| GATGATTGTTCTCCCAGCTGATGAATTTGTAACGTCGAGTAAACAAATTTTCCTAATCTTTCTGTTCAAGCGCCATCTAC | 1.76 |
| GATGATTGTTCTCCCAGCTGATGAATTTATGGGATCGAGTAAACAAATTTTCCTAATCTTTCTGTTCAAGCGCCATCTAC | 0.404 |
| GATGATTGTTCTCCCAGCTGATGAATTCAACAAATCGAGTAAACAAATTTTCCTAATCTTTCTGTTCAAGCGCCATCTAC | 0.376 |
| GATGATTGTTCTCCCAGCTGATGAATTCACCAGTTCGAGTAAACAAATTTTCCTAATCTTTCTGTTCAAGCGCCATCTAC | 0.256 |
| GATGATTGTTCTCCCAGCTGATGAATTGCGCCCTTCGAGTAAACAAATTTTCCTAATCTTTCTGTTCAAGCGCCATCTAC | 2.29 |
| GATGATTGTTCTCCCAGCTGATGAATTATATCAATCGAGTAAACAAATTTTCCTAATCTTTCTGTTCAAGCGCCATCTAC | 0.56 |
| GATGATTGTTCTCCCAGCTGATGAATTTTTAGTATCGAGTAAACAAATTTTCCTAATCTTTCTGTTCAAGCGCCATCTAC | 0.38 |
| GATGATTGTTCTCCCAGCTGATGAATTCTCCAAGTCGAGTAAACAAATTTTCCTAATCTTTCTGTTCAAGCGCCATCTAC | 0.162 |
| GATGATTGTTCTCCCAGCTGATGAATTAGACTAATCGAGTAAACAAATTTTCCTAATCTTTCTGTTCAAGCGCCATCTAC | 0.311 |
